{
  "source": "PubChem BioAssay AID485360",
  "about": "(National Center for Advancing Translational Sciences (NCATS), 2010)",
  "note": "About 1,500 (0.65%) of roughly 230,000 compounds were called active. The shares of active, inactive and inconclusive entries below differ from those in the screen. Calls follow the shape of the dose curve; as a rule, active = well fitted inhibition curve with a large enough effect; inconclusive = small, poorly fitted or top-dose-only effect; inactive = no such curve, though single readings can be large or run the other way. Potencies of inconclusive entries are doubtful fits and often do not repeat. Potency is read from the fitted curve at half-maximal effect; tags tell the direction and shape of the fitted curve.",
  "data": [
    {"biological_target": "Lethal(3)malignant brain tumor-like protein 1 (Homo sapiens) (UniProt Q9Y468)", "sequence (Q9Y468 whole entry, looked up)": "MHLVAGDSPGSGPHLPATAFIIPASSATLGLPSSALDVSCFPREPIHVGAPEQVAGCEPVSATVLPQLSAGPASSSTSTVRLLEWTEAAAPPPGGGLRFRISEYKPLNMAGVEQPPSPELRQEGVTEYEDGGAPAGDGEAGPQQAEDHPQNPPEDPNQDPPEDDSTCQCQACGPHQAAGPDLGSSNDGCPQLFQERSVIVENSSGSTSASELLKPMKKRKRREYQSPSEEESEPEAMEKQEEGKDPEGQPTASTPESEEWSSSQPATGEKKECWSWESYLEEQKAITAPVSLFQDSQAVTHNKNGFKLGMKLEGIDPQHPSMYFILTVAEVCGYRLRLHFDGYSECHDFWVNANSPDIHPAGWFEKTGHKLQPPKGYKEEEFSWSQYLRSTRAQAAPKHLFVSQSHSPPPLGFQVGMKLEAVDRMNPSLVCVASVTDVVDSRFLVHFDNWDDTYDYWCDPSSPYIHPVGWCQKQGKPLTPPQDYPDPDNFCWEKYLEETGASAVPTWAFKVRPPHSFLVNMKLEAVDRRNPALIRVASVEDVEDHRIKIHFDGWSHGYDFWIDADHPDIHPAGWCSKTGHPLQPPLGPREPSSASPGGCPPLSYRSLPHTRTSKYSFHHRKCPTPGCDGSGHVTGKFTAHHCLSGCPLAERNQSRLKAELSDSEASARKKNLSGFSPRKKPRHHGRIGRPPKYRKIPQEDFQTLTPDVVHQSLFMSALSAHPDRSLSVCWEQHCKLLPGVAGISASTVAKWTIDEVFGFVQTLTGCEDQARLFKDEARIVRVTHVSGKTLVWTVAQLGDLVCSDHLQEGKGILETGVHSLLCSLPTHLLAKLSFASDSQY", "assay": "qHTS Assay for the Inhibitors of L3MBTL1; also: nearly all actives have a fitted effect of over 60% in size", "conditions": "AlphaScreen L3MBTL1–H3K9me1 peptide binding; series mostly up to 57.1 µM", "outline": "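AlphaScreen proximity signal between nickel-chelate acceptor and streptavidin donor beads (final 10 ug/mL) reports binding of 50 nM L3MBTL1 to 75 nM biotin-H3 K9me1 peptide; complex incubated with compounds 30 min at room temperature; cefsulodin titration as control.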", "values": [
      {"smiles": "CN1CCc2c(sc(NC(=O)c3cc(Cl)sc3Cl)c2C(N)=O)C1", "Potency": "inactive"},
      {"smiles": "CCOCCCNC(=S)Nc1ccc(S(N)(=O)=O)cc1", "Potency": "inactive"},
      {"smiles": "O=C(c1ccc2[nH]c3c(c2c1)CCCC3)N1CCN(c2ccc(F)cc2)CC1", "Potency": "inconclusive: 28.2 µM [inhibitor, single point]"},
      {"smiles": "Cc1cnc(C(=O)OCC(=O)c2csc(N3CCCCC3)n2)cn1", "Potency": "inconclusive: 35.5 µM [inhibitor, single point]"},
      {"smiles": "CCCC(=O)NC(c1cccs1)c1cc([N+](=O)[O-])c2cccnc2c1O", "note": "(centres undefined)", "Potency": "inconclusive: 31.6 µM [inhibitor, single point]"},
      {"smiles": "COc1ccc(C(=O)Nc2ccc(N3CCN(Cc4ccccc4)CC3)cc2)cc1", "Potency": "inconclusive: 39.8 µM [inhibitor, single point]"},
      {"smiles": "O=C(CSC1=NS(=O)(=O)c2cc(Cl)ccc2N1)NCc1ccccc1", "Potency": "inactive"},
      {"smiles": "Cc1cccc(-c2nnc3sc(-c4ccccc4C)nn23)c1", "Potency": "inactive"},
      {"smiles": "CCN(CC)CCN1C(=O)C(=O)/C(=C(/O)c2ccc(OC)c(OC)c2)C1c1ccccn1", "note": "(centres undefined)", "Potency": "inconclusive: 44.7 µM [inhibitor, partial curve]"},
      {"smiles": "CCOc1ccccc1N(CC)C(=O)Cn1ncc2c(=O)oc3ccccc3c21", "Potency": "inconclusive: 3.98 µM [inhibitor, full curve, poor fit]"},
      {"smiles": "C/C(=N\\NC(=S)Nc1cc(S(=O)(=O)N2CCOCC2)ccc1Cl)c1ccccc1F", "Potency": "inconclusive: 25.1 µM [inhibitor, single point]"},
      {"smiles": "COc1c(O)cc2c(c1O)C(=O)CC(c1ccccc1)O2", "note": "(centres undefined)", "Potency": "inactive"},
      {"smiles": "CC1CC(C)CN(C(=O)C(Cc2ccccc2)NC(=O)c2ccccc2)C1", "note": "(centres undefined)", "Potency": "inactive"},
      {"smiles": "O=c1c2ccccc2c(-c2ccccc2)nn1Cc1c(Cl)cccc1Cl", "Potency": "inconclusive: 6.31 µM [inhibitor, single point]"},
      {"smiles": "Cc1noc(C)c1NC(=O)N(C)C[C@@H]1Oc2ccc(NC(=O)C3CCCCC3)cc2C(=O)N([C@@H](C)CO)C[C@H]1C", "Potency": "inactive"},
      {"smiles": "CCCCn1c(SCC(=O)O)nc2ccccc21", "Potency": "inconclusive: 39.8 µM [inhibitor, single point]"},
      {"smiles": "COc1ccc(CCn2c(O)cc3nn(-c4nc5ccccc5s4)c(=O)c-3c2C)cc1", "Potency": "inconclusive: 39.8 µM [inhibitor, single point]"},
      {"smiles": "Cc1cc(C)c2nc(NNC(=O)c3ccc(S(=O)(=O)N4CCCCC4)cc3)sc2c1", "Potency": "inconclusive: 17.8 µM [inhibitor, partial curve]"},
      {"smiles": "CCCOc1ccc(Cn2c(O)cc(=O)[nH]c2=O)cc1", "Potency": "inconclusive: 5.62 µM [inhibitor, single point]"}
    ]}
  ]
}
